PubChem BioAssay AID624171 (National Center for Advancing Translational Sciences (NCATS), 2012)
Hit rate of the full screen: of about 410,000 compounds, about 1,200 (0.29%) were called active. Roughly 2% stayed inconclusive and do not appear here. The call rests on the fitted dose curve; in most records, active means well fitted activation curve with a large enough effect; inconclusive means small, poorly fitted or top-dose-only effect; inactive means flat fitted curve, though single readings scatter. Only a part is listed here, and it is no random draw. The source holds several records for some structures; these can differ, active in one and inactive in another.

Experiment: qHTS of Nrf2 Activators; further: nearly all actives have a fitted effect of over 65% in size; on activation: % of control where 0% means no effect
Conditions: AREc32 ARE-luciferase reporter (MCF7-derived line), luminescence, 24 h; series mostly up to 46.1 µM; activation: at the top concentration
Method in brief: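 Reporter line AREc32 (ARE-Fluc), seeded overnight in OPTI-MEM with 5% FBS; compound pin-transferred, 24 hr at 37 deg C, 5% CO2; luminescent read-out.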
Potency means the concentration at half of the fitted maximal effect.

activation, inactive:
COc1ccccc1/C=C\C=N\NC(=O)c1ccco1 6.42%
O=C1/C(=C/c2cccnc2)SC(=S)N1C1CCS(=O)(=O)C1 (configuration not stated) 18.6%
Cn1c(=O)n(C)c2cc(NS(=O)(=O)c3ccc(F)cc3)ccc21 16.1%
CC1CCCCC1NC(=O)COC(=O)c1c2c(nc3ccccc13)/C(=C\c1ccco1)CC2 (configuration not stated) 20.3%
Oc1ccc(NCc2ccccc2OCc2ccccc2F)cc1 25.4%
O=C(Nc1nnc([C@H]2C[C@H](O)[C@@H](CO)O2)s1)c1cccc(C(F)(F)F)c1 19.7%
NS(=O)(=O)c1ccc(NC(=O)c2cc(-c3cccs3)nc3ccccc23)cc1 30.5%
O=C(CSc1nnc(SCc2ccccc2)s1)N/N=C/C=C\c1ccco1 22.5%
CCCN1C(=O)S/C(=C/c2ccc(N3CCOCC3)o2)C1=O 19.7%
O=S(=O)(/C(=C\c1ccc(C(F)(F)F)cc1)c1nc2ccccc2[nH]1)c1ccccc1 -2.65%
Cc1nnc(NC(=O)c2nc(S(=O)(=O)Cc3ccccc3)ncc2Cl)s1 -2.84%
O=C(O)CCC(=O)Nc1sc2c(c1C(=O)Nc1ccccc1)CCCCC2 -1.31%
O=C1/C(=C\c2cccs2)SC(=S)N1C1CCS(=O)(=O)C1 (configuration not stated) 22%
CCn1c(/C=C/c2ccccc2C)nc2ccccc2c1=O 26.5%
Cc1[nH]nc(N=CC2=C(O)CC(c3ccco3)CC2=O)c1-c1ccccc1 (configuration not stated) 11.7%
CCS(=O)(=O)c1ncc(Cl)c(C(=O)Nc2ccc(S(=O)(=O)N(C)c3ccccc3)cc2)n1 -6.09%
O=C(/C=C/c1ccco1)NC(=S)Nc1ccccc1O 26%
O=C(CCCN1C(=O)/C(=C\c2ccccc2)SC1=S)Nc1ccccc1O 23.6%
N#CC1=C(N)C(C#N)(C#N)[C@H](c2ccncc2)[C@H]2CN(C(=O)OCc3ccccc3)CC=C12 4.81%
COc1ccc(/C=C/C(=O)CC(O)(c2ccccc2)C(F)(F)F)cc1 (configuration not stated) 17%
CCOC(=O)N1C(=O)[C@@](c2ccc(Cl)cc2)(C(C)C)N1C(=O)OCC 13.2%
O=[N+]([O-])C(/C=C(\Cl)[N+](=O)[O-])=C(N1CCCCC1)N1CCCCC1 6.67% [at 9.22 µM]
O=C(Nc1nnc([C@H]2C[C@H](O)[C@@H](CO)O2)s1)c1cccc(Cl)c1 11.6%
COc1ccccc1-c1nc(-c2ccc(Br)o2)no1 10.2%
COC(=O)c1c(NC(=O)Nc2ccc(Cl)cc2)sc(C)c1C 12%
COC(=O)/C=C1/N/C(=N\c2nc(C)cc(C)n2)N(c2ccc(C)c(C)c2)C1=O 12.2%
O=C1/C(=C/c2ccco2)SC(=S)N1C1CCS(=O)(=O)C1 (configuration not stated) 0.198%
Oc1ccccc1/C=N/NC(=S)NC1CC2C=CC1C2 (configuration not stated) 8.27%

Potency, active:
O=C1C(=Cc2cccc(F)c2)Cc2ccccc21 10 µM
CCc1ccc(C(=O)Cn2ncc(Cl)c(Cl)c2=O)cc1 10 µM
CSc1ncc(Cl)c(C(=O)Nc2cccnc2)n1 11.2 µM
CSc1nccc(-c2cc(Cl)sc2Cl)n1 11.2 µM
O=C(Cc1cccs1)N/N=C/C=C\c1ccco1 11.2 µM
CC(/C=C(\NC(=O)c1ccccc1)C(=O)N=Nc1c(O)[nH]c2ccc(C)cc12)=C\c1ccccc1 8.91 µM
O=C(Nc1ccccc1F)c1ccc(-c2cccc([N+](=O)[O-])c2)o1 1.41 µM
O=c1[nH]c(O)c(/C=C2\C=Nc3ccc(Br)cc32)[nH]1 10 µM
Cc1cccc(C)c1-n1nnnc1C1c2ccccc2C(=O)N1CCc1ccccc1F (configuration not stated) 12.6 µM
